Experimental data from the supplement of paper PMC3334620.
The full ranking holds about 33,000 sequences; the median of “E-score (-0.5 to 0.5)” is about -0.016, and the highest 2% start at about 0.32. The list shows a part of the results.

Each sequence was assayed against T1, Stp1 (UniProt B3LFK1) (assay: PBM E-score (8-mer binding enrichment) (E-score (-0.5 to 0.5)); higher = stronger / more preferred TF binding; most listed sequences are background and not binding sites). Conditions: protein concentration: 200 nM; construct: GST-full length.
T1 sequence: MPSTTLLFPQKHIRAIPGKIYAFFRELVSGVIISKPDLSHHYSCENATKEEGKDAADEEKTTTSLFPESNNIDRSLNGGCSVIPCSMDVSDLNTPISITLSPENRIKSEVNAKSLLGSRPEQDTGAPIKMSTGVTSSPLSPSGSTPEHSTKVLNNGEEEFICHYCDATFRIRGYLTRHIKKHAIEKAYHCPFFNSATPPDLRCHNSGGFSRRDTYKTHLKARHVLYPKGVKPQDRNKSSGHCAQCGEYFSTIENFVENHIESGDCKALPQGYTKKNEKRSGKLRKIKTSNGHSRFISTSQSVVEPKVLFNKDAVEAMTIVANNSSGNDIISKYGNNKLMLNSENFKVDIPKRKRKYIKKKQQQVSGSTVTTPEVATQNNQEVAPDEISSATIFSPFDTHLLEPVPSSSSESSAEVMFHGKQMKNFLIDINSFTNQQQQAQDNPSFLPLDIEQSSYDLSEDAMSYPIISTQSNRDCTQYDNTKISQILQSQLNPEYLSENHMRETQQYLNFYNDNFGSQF
Summary of the method: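 Detection of bound protein used fluorescent anti-GST, with scans normalised by masliner. The proteins were GST-tagged yeast transcription factors applied at about 100-200 nM to universal all-10-mer Agilent arrays made double-stranded by primer extension. Each ungapped eight-base word, pooled with its reverse complement, was scored with an E-score from the Universal PBM Analysis Suite.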

Sequence	PBM E-score
GCTCTAGA	-0.0603
ATGGACGA	0.137
ATGTGGAC	0.0639
CTACTTGA	-0.0696
CAGATCCC	-0.135
CACAACCG	0.0612
ATAAGATC	0.00385
GGCAGCCA	-0.0156
CCTTCTTA	-0.0218
CATTCTTA	0.0101
AGGAACTG	-0.00391
ACCGCCAA	-0.276
ACCGGCGC	0.3
ATGTTGTG	0.0528
GCGTAGAC	-0.0508
CTGTTACC	-0.131
TATTCCAA	0.178
GTGGCGTA	0.0488
TCGACCAA	-0.0251
TGAGATAA	0.0624
ACGACAGA	-0.0742
GACGAGCA	-0.00677
ACTCCGCG	0.068
GTGGAATA	-0.0142
CTCTGATC	-0.0439

Sequence	PBM E-score
ATCCAAGA	-0.0212
CATGCTGG	-0.252
ACTTCGAC	0.183
CGCCAAAA	0.0598
CCTCTGAA	-0.301
GGTATGAC	-0.0709
ATATGTTC	0.0302
CCTCGTCC	-0.215
CCGTGCTC	0.261
AAGCCGAT	0.135
GGCCCAGA	-0.283
TTACAAAA	0.167
ATAATCAC	0.159
CCAGTGCA	-0.149
CCGAGCTC	0.00119
AGCAACAT	0.0205
ACTACCCA	-0.259
CCTGCGGC	0.331
AAACCACC	-0.0159
AGAAGATC	0.0528
CCCCGGGA	-0.256
GCCCCACC	-0.0669
AGTGGCCC	-0.202
CAATCCGA	-0.033
AGCCTAAC	0.0884

Sequence	PBM E-score
GACCTGGA	-0.208
AACCTCCT	-0.24
AAAGAATG	0.163
GGACTAAC	-0.266
CAGTCGAG	-0.205
ACATAAAT	0.206
AGGTCATA	-0.146
AAGACCGG	-0.173
ACATATGA	0.0631
GTCGTCCA	-0.0955
AGGGTTAG	-0.181
CGGACTCC	-0.0441
AACCTTGC	-0.0117
CTTTCAAC	0.0409
CCTCAGGC	-0.0779
CGATAAAA	0.129
ACCCTTAC	-0.0496
CAACTGCA	0.00074
AAATACAC	0.0347
GGGCGACC	0.004
GCGGAACA	0.114
CGATATAG	0.0421
CACGTCTG	0.199
CAGCTAGG	-0.288
ACGTCACA	-0.0409

Sequence	PBM E-score
CGGTGAAC	0.167
CTTGAGGA	-0.174
CGGGACCC	-0.172
ATTATGAC	0.0941
ACCCGTCA	-0.247
AGTGCAAA	0.101
CTTTGTTA	0.167
CACGCTCG	-0.2
AGCGCCCC	0.0659
CAACATAA	0.233
CAAATCGG	0.0218
CAGGTGCA	-0.157
GTGAGCAC	-0.066
AATGGGAC	-0.107
CACGATCG	0.0593
TATATATA	0.345
ATGCATGG	0.143
AGGGAATA	0.129
CTCGTCTC	-0.0621
CGTTATTA	0.0232
ACAAGGAC	-0.141
ACGTACGC	-0.023
CAAGCATC	-0.0293
ATCTGGTA	0.183
GTAAGTTA	0.0449

Sequence	PBM E-score
AGACCTCC	-0.353
CCGACATC	-0.0143
ATGTTCAC	-0.00209
AGGCGCTG	0.311
CGTTTGTA	0.189
CCTACGGA	-0.13
GCCGTTTA	0.443
GAAGTGGC	0.151
CTCTTCAG	0.00462
AGAACAGA	-0.0692
CTTTTGAC	0.0177
CGACCAAG	-0.129
TGGAAAAA	0.102
AGTACTAG	0.132
AGTGCGGG	-0.0896
CATGCTCC	-0.248
CATGGGGA	-0.148
ATTCCAGA	0.107
GATGTCAA	-0.156
TATCCGCA	0.313
GAGAATCA	-0.0603
CATTTTTA	0.0213
AGCTGCTA	-0.205
CACTAATC	0.0861
GCTACGAC	0.0698

Sequence	PBM E-score
CACTTCTG	-0.0421
AATGAATC	0.0283
TAGAGCCA	0.0299
CATGAGTC	-0.198
GCTACACA	0.1
CTGGAAAC	0.00538
ACCGGCAG	-0.121
AACGACTC	-0.289
CAGCGCGC	-0.00184
TGCTTTAA	0.0682
GCGGCCCA	0.287
GACGTTCA	-0.114
CTATTCCC	-0.17
ATTGGGAA	-0.189
GCCCGTCA	-0.259
GGAAAACC	-0.143
CTACATTC	-0.149
CATCCATC	-0.197
GCGTCGAC	0.18
GTTCTTGA	-0.0583
ATTAGTAA	0.237
ATCGTTCG	0.0636
GAGCCCTA	0.0308
CGTATACA	0.182
CACGAATC	0.0534

Sequence	PBM E-score
CCGAGTGC	0.173
CCCTTACA	0.0253
CATGTTCA	-0.0692
AATCCTGA	-0.0136
ACATATCT	0.126
CGCTGTTA	-0.119
AATGTGTG	-0.0323
ACTTAGCC	0.113
CCTTGACA	0.0221
CTTTTTGA	-0.00282
AACCCTGG	-0.338
AGTGGGTG	-0.0322
ATTGTGTA	0.124
AGAGTCAG	-0.0573
AGCAGGAG	-0.235
CCGACTTA	0.0516
AACAAAGG	-0.104
CCACCACA	-0.182
GTGTCGAA	-0.107
AGATGATA	0.0699
AACCTAAA	0.163
AGGTACGA	-0.13
GATGAATA	0.0738
GAAGCCAC	0.0443
AAACAGCT	-0.0393

Sequence	PBM E-score
GAAGCAGA	-0.0929
CATTGCCG	0.358
AGTAGACA	0.0181
CCCGTCAA	-0.195
CACACTTC	0.0127
TCAGGGGA	-0.256
AAATCTCG	0.0684
GAACCCTA	0.00671
AGAGTTTC	-0.206
CAGGAGTA	0.109
CGGATTTC	0.0502
TCTGTCCA	0.0131
AGTCCCAT	-0.174
CCTCTCAA	-0.0851
GGTTCGAA	0.128
CAGTGAGG	-0.0891
CCACCTTC	-0.304
CCCCGCAA	0.111
CGGCTTCA	0.368
CAGTGGAG	-0.0101
CGCTCGGC	0.256
CCCGACCA	-0.143
AGGCGTAG	-0.0223
ATGTGCGC	-0.0938
CACTTGCG	0.0239

Sequence	PBM E-score
ACAAGCAG	-0.216
AATAGAAA	0.215
CACAAAGC	0.23
ACGGACGT	0.0122
GATGAGCA	0.0484
CAATTGCA	0.134
GTCCGCAC	0.186
AACAGCGG	-0.0886
CGGGCTAG	-0.197
GGTGGAAC	-0.147
TCTCGAAA	0.0824
ACGTTACA	0.00085
CACTAGAG	0.145
AGTCGCGG	-0.0754
TGCGGAAA	0.0333
TAGATGCA	0.106
GAGCCTCC	-0.21
ACTGTTCC	-0.131
ACATATCC	0.133
AAGTTAAT	-0.081
ACGAGAAA	0.0358
AAGTCCCG	-0.145
AAATTGTC	0.138
AGCTTTGC	-0.187
AATGCTCG	-0.00397

Sequence	PBM E-score
CAAAAACA	0.065
AACCCCGC	0.0256
CAATAAAC	0.13
AATTGTTA	0.0498
ACCCAACT	-0.178
GATTGAAC	-0.0573
ACGATATC	0.124
CCCTTCCA	-0.144
TACATGCA	0.0485
AACGAATC	0.202
ATTGGTAC	0.0674
ACTTTGCA	0.12
ACCGATCA	0.039
CCAGCCTA	-0.35
TACTCAAA	0.132
CCGTGTTC	0.301
GGTGCTAC	-0.133
AGCGGACC	-0.215
CCGGATTA	-0.0118
GATTAGAC	0.092
GCACATGC	0.0145
CCACAGCG	0.00802
GCCCGCCA	-0.186
GGCGTCAA	0.31
ATTTTGTG	0.158

Sequence	PBM E-score
ACCCGCAT	0.1
CAGCTTAG	-0.256
ATTTGCAC	0.0601
ATTGCTTA	0.0358
ACCAGAAT	0.0838
CTGTCGCA	0.00593
ATAACGGC	0.264
CATAAACG	0.169
ACACATCG	-0.0488
GAGTAAGC	-0.0509
CGTACATC	-0.133
ATGAGGGG	-0.15
ATACTCAC	-0.0348
TTATATAA	0.171
AGCGGCGG	0.337
AGCATATA	-0.0358
GAGCATGC	-0.118
CACAATGG	0.0592
CATCATTA	0.0888
ACATGAAG	0.0523
CGCCCCAG	-0.0372
CCTTGATC	0.1
AACCGCAC	0.0401
ACAGCGGA	-0.0656
AAGCGGGA	-0.095

Sequence	PBM E-score
CCAACTGC	0.00294
CACCGAGA	-0.122
AGATACAA	0.19
CTCTACAA	-0.00346
GGGTCAGA	-0.117
CTAATCAG	0.0625
ACGGGGCT	-0.161
CAGCACAA	0.142
GTTGATTA	0.205
ACAAGAAC	0.296
GAGGTAAC	0.00014
CCGCCATC	-0.0267
TATCTACA	0.189
CATCCTCC	-0.21
GTAGCTTA	0.189
AATGGCTG	-0.0326
AGAACTTG	-0.0576
CGCGGCCA	0.269
CTTCTATC	-0.0897
CCGGCCTA	-0.0984
AAGCCAGC	-0.137
CCTCGCCC	0.0345
CCGCATTC	0.105
ACCACTCA	-0.00545
ATGTGAGA	0.0389

Sequence	PBM E-score
CGTGGCTC	-0.0716
CAACCCTA	-0.233
ATAGTCGC	-0.0218
ATCATTAC	0.0917
ATTACTCG	0.0247
ATACTGTG	-0.0187
AGCGTTAG	-0.0878
CCCTTAGG	-0.262
GTGAAAAA	0.106
CTCCTCCA	-0.0755
AGAGGAAC	-0.0971
ATGAATAG	0.0652
GTTATTTA	0.227
AGCTTAGC	-0.0407
AAAGCTGA	-0.0561
AGGTTTCC	-0.232
CAATCGAC	-0.138
ACGAGAGT	-0.263
AAGCTAGC	-0.086
ATGCCGTG	0.484
AGGCTGAC	-0.121
CCATAATC	0.0285
CAGGCGTC	-0.00022
ACTGACAG	0.0511
ATGAACAG	-0.0959

Sequence	PBM E-score
CGACCGAA	-0.0124
GAAGTTGA	-0.139
AAGGGTAT	-0.102
GGAATAGA	0.0693
CAGAGAAG	0.00015
GCCCGTAA	-0.0663
AGAGTGCG	-0.0608
AGATCTAA	-0.0294
ACTCACAA	-0.0902
AGGTGAAA	0.0539
CACCGATC	-0.0313
CAATGCCC	0.136
CCACTAGC	-0.11
AATTCATG	0.198
CCACAAGG	0.057
GCGGATCC	-0.0816
ACCACAAT	-0.0465
CCATAGAG	0.0124
GAGACCTA	-0.155
